Reference: PubChem BioAssay AID463173 (ICCB-Longwood Screening Facility, Harvard Medical School, 2010)
Hit rate of the full screen: of about 52,000 compounds, about 1,700 (3.3%) were called active. Cut-off read from the data, not from the text of the source: active = survival mostly below about 52% (no sharp cut-off); inactive = mostly above about 56%. Some of the results follow.

system: Wild type; test: S. aureus survival, RN4220 and DeltatarO strains – OD600, teichoic acid synthesis inhibitors, primary screen (AID 463173); conditions: S. aureus RN4220 wild type/DeltatarO growth, OD600, 18 h, hits give low values, screened at 18.75 µg/mL (by protocol)

| Structure (SMILES) | survival |
| --- | --- |
| COc1ccc(C(c2c(O)cc(C)n(Cc3ccco3)c2=O)N2CCCCC2)cc1OC (stereo not given) | inactive: 92% |
| Cc1ccc(SCC(=O)Nc2ccccc2)cc1 | inactive: 125% |
| CCOc1cccc(CC(=O)N2CCc3c([nH]c4ccccc34)C2c2ccc(Cl)cc2)c1OCC (stereo not given) | inactive: 73% |
| c1ccc(-n2c(SCCN3CCOCC3)nnc2-c2ccncc2)cc1 | inactive: 102% |
| Nc1nc(CN2CCCCC2)cs1 | inactive: 119% |
| COc1cc(Cl)c(C)cc1NC(=O)c1ccc2c(Cl)c3c(nc2c1)CCC3 | inactive: 83% |
| CCC1CCCCN1C(=O)c1ccccc1F (stereo not given) | inactive: 101% |
| Cc1ccc(OC(=O)C23CC4CC(CC(C4)C2)C3)cn1 | inactive: 122% |
| CCc1ccc(Oc2c(C(F)(F)F)oc3c(CN4CCN(C)CC4)c(O)ccc3c2=O)cc1 | inactive: 131% |
| O=C(Cn1cc(SCc2cccc(Cl)c2)c2ccccc21)N1CCCCCC1 | inactive: 85% |
| CCOc1ccccc1NC(=O)c1c(NC(=O)c2ccccc2)sc2c1CCCC2 | inactive: 74% |
| CCOc1ccccc1CNC(=O)c1cnc2sc(N3CCCCCC3)nn2c1=O | inactive: 73% |
| COc1ccc(-n2ccn(CC(=O)NCCc3ccccc3)c(=O)c2=O)cc1OC | inactive: 116% |
| O=C(NCCc1csc2nc(-c3ccc(F)cc3)nn12)c1cccc(C(F)(F)F)c1 | inactive: 85% |
| COc1cccc(CNC(=O)Cn2ncc3c4ccccc4n(Cc4ccccc4)c3c2=O)c1 | inactive: 93% |
| COc1ccccc1CN(Cc1ccco1)c1cnc(S(C)(=O)=O)nc1C(=O)Nc1cc(C)ccc1C | inactive: 83% |
| CCc1ccc(S(=O)(=O)NCCc2csc3nc(-c4ccccc4)nn23)s1 | inactive: 129% |
| CC(C)(C)c1ccc(-c2nc3cc(NC(=O)c4cccc(Br)c4)ccc3o2)cc1 | inactive: 91% |
| COc1cccc(C(=O)NCc2nc(-c3ccccc3)no2)c1OC | inactive: 89% |
| Cn1c(=O)c2c(ncn2CC(=O)Nc2cccc(C(F)(F)F)c2)n(C)c1=O | inactive: 73% |
| Cc1cccc(NC(=O)CCc2c(C)nc3nc(CNC(=O)c4cccc(F)c4)nn3c2C)c1 | inactive: 95% |
| CC(=O)Nn1c(C)nc2ccccc2c1=O | inactive: 112% |
| COc1ccc(Cn2c(SCc3ccc(C(=O)NC4CCCC4)cc3)nc3cccnc32)cc1 | inactive: 73% |

| Structure (SMILES) | survival |
| --- | --- |
| CCN(CC)C1=CC(=O)OC12CCCCC2 | inactive: 118% |
| O=C(Cn1c(=O)n(Cc2ccc3c(c2)OCO3)c(=O)c2oc3ccccc3c21)Nc1ccc(F)cc1 | inactive: 80% |
| CCOC(=O)C1(C)NC(c2ccc(F)cc2)C2C(=O)N(CC)C(=O)C21 (stereo not given) | inactive: 108% |
| COc1ccc(-c2noc(CSc3nnc(-c4ccncc4)n3-c3ccc(C)cc3)n2)cc1OC | inactive: 80% |
| COC(=O)/C(=C\c1c[nH]c2ccccc12)NC(C)=O | inactive: 102% |
| O=C(CSc1nnc2c(n1)[nH]c1ccccc12)Nc1ccccc1 | inactive: 104% |
| CCn1cc(CNC(=O)c2cc(-c3ccc(C)c(C)c3)nc3ccccc23)c(C)n1 | inactive: 134% |
| CC1CCCCN1C(=O)Cn1c(SCC(=O)N(C)c2ccccc2)nc2ccccc21 (stereo not given) | inactive: 53% |
| Cc1ccc(NC(=O)c2ccc(=O)n(CC(=O)Nc3cccc(C)c3)n2)cc1 | inactive: 71% |
| COC(=O)c1ccccc1NC(=O)c1cc2nc(-c3ccc(OC)cc3)cc(C(F)(F)F)n2n1 | inactive: 67% |
| Cc1ccc(NC(=O)c2ccc(NC(=O)N3CCSc4nc(C)cc(C)c43)cc2)c(Cl)c1 | inactive: 131% |
| O=C(Cn1nc2c(cc1=O)CCCC2)Nc1ccccc1C(F)(F)F | inactive: 75% |
| COC(=O)c1cc2c(ccn2-c2ccc(F)cc2)n1CC(=O)N1CCCCC1 | inactive: 114% |
| CCOc1ccccc1CNS(=O)(=O)c1ccc(-c2coc(C)n2)cc1 | inactive: 70% |
| Cc1cccc(C(c2sc3nc(-c4ccco4)nn3c2O)N2CCN(c3ccccc3)CC2)c1 (stereo not given) | inactive: 88% |
| O=C(CSc1n[nH]c(-c2ccccc2Cl)n1)N1CCN(c2ccccc2)CC1 | inactive: 87% |
| Cc1ccc(C)c(NC(=O)c2ccc3nc(CCc4ccccc4)oc3c2)c1 | inactive: 65% |
| C=CCN1Cc2c(sc3c2CCCC3)N(C(=O)c2ccccc2)C1 | inactive: 114% |
| CCCc1ccc(C2Sc3ccccc3NC3=C2C(=O)c2ccccc23)cc1 (stereo not given) | inactive: 106% |
| Cc1cc(NC(=O)c2cccs2)cc(-c2nc3cc(Cl)ccc3o2)c1O | inactive: 87% |
| CCOC(=O)CNS(=O)(=O)c1cc(-c2nnc(Nc3cccc(O)c3)c3ccccc23)ccc1C | inactive: 58% |
| CCC(=O)NCc1cc(-c2nn(C)c(=O)c3ccccc23)ccc1OC | inactive: 68% |
| CCn1cc2nc(SCC(=O)Nc3ccc(C)cc3C)n(Cc3ccc(C)cc3)c(=O)c2n1 | inactive: 135% |

| Structure (SMILES) | survival |
| --- | --- |
| COC(=O)C1CCN(C(=O)c2ccc(NC(C)=O)cc2)CC1 | inactive: 104% |
| COc1cc(NC(=O)CCCc2nnc3n(C)c(=O)c4sccc4n23)cc(OC)c1OC | inactive: 93% |
| O=C(CSCc1ccc(F)cc1)NCc1ccc(F)cc1 | inactive: 87% |
| Cc1cccc(CC(=O)N2CC(=O)Nc3ccc(F)cc3C2c2ccccc2)c1 (stereo not given) | inactive: 81% |
| Cc1ccc(CNC(=O)CSc2c(C(C)C)cnc3c2c(=O)n(C)c(=O)n3C)cc1 | inactive: 58% |
| CC(C)c1ccc2nc(SCC(=O)N3CCCC3)c(C#N)cc2c1 | inactive: 114% |
| CCC(CC)C(=O)N1CCc2cc(OC)c(OC)cc2C1COc1ccc(F)cc1 (stereo not given) | inactive: 75% |
| CCc1ccccc1NC(=O)Nc1ccc2snnc2c1 | inactive: 82% |
| CCc1ccc(NS(=O)(=O)c2ccc3[nH]c4c(c3c2)CCCCCC4)cc1 | inactive: 82% |
| Cc1cccc(-n2ncc(C(=O)NCc3ccc4c(c3)OCO4)c2C2CCN(C(=O)OC(C)(C)C)CC2)c1 | inactive: 77% |
| O=C(CSc1nc(Nc2ccc(F)c(F)c2)c2ccccc2n1)c1ccc(Cl)cc1 | inactive: 78% |
| COc1ccc(-c2cccc(NS(=O)(=O)c3ccc(NC(C)=O)cc3)c2)nn1 | inactive: 82% |
| CCCCN(C)CCNC(=O)c1cc(-c2ccc(Cl)s2)nc2ccccc12 | inactive: 82% |
| CCc1ccc(NC(=O)CN2C(=O)CC(c3ccccc3)Sc3ccccc32)cc1 (stereo not given) | inactive: 116% |
| CC(C)(C)OC(=O)N1CCC(c2c(C(=O)NCCN3CCOCC3)cnn2-c2ccc(F)cc2F)CC1 | active: -3% |
| CCOc1ccccc1Nc1nc2c(S(=O)(=O)c3ccc(C)cc3)nnn2c2ccsc12 | inactive: 87% |
| Cc1ccc(-c2nc3scc(CCNS(=O)(=O)c4ccc(Oc5ccccc5)cc4)n3n2)cc1 | inactive: 111% |
| CCOC(=O)c1c(-c2ccccc2)csc1NC(=O)c1nc(SCC)ncc1Cl | inactive: 97% |
| O=C(NCC1CC1)Nc1c[nH]c2ccccc2c1=O | inactive: 107% |
| CCOc1cc(/C=C(\C#N)C(=O)Nc2ccc(OC)cc2)ccc1OCc1cc(=O)n2nc(CC)sc2n1 | inactive: 84% |
| Cc1ccc2nc(CSc3nnc(NC(=O)c4ccc(C(C)(C)C)cc4)s3)cc(=O)n2c1 | inactive: 55% |
| CC(=O)Nc1ccc(NC(=O)c2ncoc2-c2ccco2)cc1 | inactive: 82% |
| COCCNC(=S)N1CCCN(c2nc3cc(C)ccc3cc2C#N)CC1 | inactive: 109% |

| Structure (SMILES) | survival |
| --- | --- |
| CCCCCNC(=O)C1CCC(Cn2c(=O)c3sccc3n(CC)c2=O)CC1 (stereo not given) | inactive: 22% |
| CCc1cccc(C)c1NC(=O)CN1C(=O)c2cccc3cccc1c23 | inactive: 66% |
| Cc1ccc(CN2C(=O)C3(c4ccccc42)N(c2ccc(C)c(Cl)c2)C(=O)CS3(=O)=O)cc1 (stereo not given) | inactive: 71% |
| COc1ccc(NC(=O)CSc2cn(CCNC(=O)c3ccc(OC)cc3)c3ccccc23)cc1 | inactive: 88% |
| CCc1nc2sc3c(N4CCCCC4)ncnc3c2c2c1CCCC2 | inactive: 136% |
| COc1cccc(/C=C(\C#N)C(=O)Nc2ccc(NC(C)=O)cc2)c1OC | inactive: 80% |
| O=C(CCC1N=C2c3ccccc3N=C(SCc3cccc(Cl)c3)N2C1=O)NCCc1ccccc1 (stereo not given) | inactive: 71% |
| COc1ccc(NC(=O)CCS(=O)(=O)c2ccc3c(c2)n(C)c(=O)c(=O)n3C)cc1Cl | inactive: 89% |
| Cc1oc(-c2cccc(Br)c2)nc1Cn1c(SCc2cccc(F)c2)nc2cccnc21 | inactive: 69% |
| CCC(C)[C@H](N)c1nnc(SCc2ccc(Cl)c(Cl)c2)o1 (stereo not given in full) | inactive: 46% |
| CCC(C)(C)n1nnnc1C(c1ccc(Cl)cc1)N1CCN(c2nc3ccccc3s2)CC1 (stereo not given) | inactive: 108% |
| COc1ccc(Br)cc1CNC(=O)CSc1n[nH]c(-c2ccccc2)n1 | inactive: 69% |
| CC1=C(C(=O)Nc2ccccc2)C(c2ccc(O)cc2)n2nc(-c3ccc(Cl)cc3)nc2N1 (stereo not given) | inactive: 82% |
| CCn1c(CN2CCCCC2)nc2cc(NC(=O)COc3ccc(C(C)(C)C)cc3)ccc21 | inactive: 97% |
| Cc1oc2ccc(O)c(CN3CCC(C)CC3)c2c1C(=O)Nc1ccccc1 | inactive: 87% |
| Cc1ccc(S(=O)(=O)NCCSc2nnnn2-c2ccccc2)cc1 | inactive: 96% |
| COc1ccc2c(c1)NC(c1ccc(Cl)cc1)=NC(c1cccs1)=N2 | inactive: 49% |
| CC(C)CC1CC(C)(C(=O)CSc2n[nH]c(-c3ccccc3)n2)OC1=O (stereo not given) | inactive: 123% |
| CCCN1C(=O)C(Cc2nc3ccccc3c(=O)n2CC)c2cc(Br)ccc21 (stereo not given) | inactive: 38% |
| Cc1ccc2[nH]cc(C(=O)N3CCCCC3)c(=O)c2c1 | inactive: 94% |
| Cc1sc(NC(=O)Nc2ccccc2)c(C(N)=O)c1C | inactive: 123% |
